Sequences and labels used below:
B1: CGGGCCG (DNA:RNA)
RNA: GGGAGACCGGAAUUCAGAUUGUCCCGGGCCGUUAAAUCCCGUCGUAGCCACCA
DNA 1: CAATCTGAATTCCGGTCTCCC
DNA 2: TGGTGGCTACGACGGGATT
B2: CAAGGGU (DNA:RNA)
RNA: B1 RNA with G26A, G27A, C29G, C30G, G31U
DNA 1: CAATCTGAATTCCGGTCTCCC
DNA 2: TGGTGGCTACGACGGGATT
B3: ACCUGAA (DNA:RNA)
RNA: GGGAGACCGGAAUUCAGAUUGUCCACCUGAAUUAAAUCCCGUCGUAGCCACCA
DNA 1: CAATCTGAATTCCGGTCTCCC
DNA 2: TGGTGGCTACGACGGGATT
B4: ACCCGAU (DNA:RNA)
RNA: B3 RNA with U28C, A31U
DNA 1: CAATCTGAATTCCGGTCTCCC
DNA 2: TGGTGGCTACGACGGGATT
B5: GUCAGAU (DNA:RNA)
RNA: B3 RNA with A25G, C26U, U28A, A31U
DNA 1: CAATCTGAATTCCGGTCTCCC
DNA 2: TGGTGGCTACGACGGGATT
B6: UACUGCC (DNA:RNA)
RNA: B3 RNA with A25U, C26A, A30C, A31C
DNA 1: CAATCTGAATTCCGGTCTCCC
DNA 2: TGGTGGCTACGACGGGATT
B7: AUAGGCG (DNA:RNA)
RNA: B1 RNA with C25A, G26U, G27A, C29G
DNA 1: CAATCTGAATTCCGGTCTCCC
DNA 2: TGGTGGCTACGACGGGATT
B8: CCCGAGG (DNA:RNA)
RNA: B1 RNA with G26C, G27C, C29A, C30G
DNA 1: CAATCTGAATTCCGGTCTCCC
DNA 2: TGGTGGCTACGACGGGATT
B9: GCUAAGA (DNA:RNA)
RNA: B3 RNA with A25G, C27U, U28A, G29A, A30G
DNA 1: CAATCTGAATTCCGGTCTCCC
DNA 2: TGGTGGCTACGACGGGATT
B10: UCCGCUC (DNA:RNA)
RNA: B3 RNA with A25U, U28G, G29C, A30U, A31C
DNA 1: CAATCTGAATTCCGGTCTCCC
DNA 2: TGGTGGCTACGACGGGATT
B11: GUGAGAC (DNA:RNA)
RNA: B3 RNA with A25G, C26U, C27G, U28A, A31C
DNA 1: CAATCTGAATTCCGGTCTCCC
DNA 2: TGGTGGCTACGACGGGATT
B12: AAAAAGC (DNA:RNA)
RNA: B3 RNA with C26A, C27A, U28A, G29A, A30G, A31C
DNA 1: CAATCTGAATTCCGGTCTCCC
DNA 2: TGGTGGCTACGACGGGATT
B13: ACUUCUG (DNA:RNA)
RNA: B3 RNA with C27U, G29C, A30U, A31G
DNA 1: CAATCTGAATTCCGGTCTCCC
DNA 2: TGGTGGCTACGACGGGATT
B14: UAUUUCA (DNA:RNA)
RNA: B3 RNA with A25U, C26A, C27U, G29U, A30C
DNA 1: CAATCTGAATTCCGGTCTCCC
DNA 2: TGGTGGCTACGACGGGATT
B15: AUAGUAC (DNA:RNA)
RNA: B3 RNA with C26U, C27A, U28G, G29U, A31C
DNA 1: CAATCTGAATTCCGGTCTCCC
DNA 2: TGGTGGCTACGACGGGATT
B16: CUAAAGG (DNA:RNA)
RNA: B1 RNA with G26U, G27A, G28A, C29A, C30G
DNA 1: CAATCTGAATTCCGGTCTCCC
DNA 2: TGGTGGCTACGACGGGATT
B17: CGAUUCA (DNA:RNA)
RNA: B1 RNA with G27A, G28U, C29U, G31A
DNA 1: CAATCTGAATTCCGGTCTCCC
DNA 2: TGGTGGCTACGACGGGATT
B18: CCGGGUU (DNA:RNA)
RNA: B1 RNA with G26C, C29G, C30U, G31U
DNA 1: CAATCTGAATTCCGGTCTCCC
DNA 2: TGGTGGCTACGACGGGATT
B19: UGGGCCU (DNA:RNA)
RNA: B1 RNA with C25U, G31U
DNA 1: CAATCTGAATTCCGGTCTCCC
DNA 2: TGGTGGCTACGACGGGATT
B20: CUUUAUG (DNA:RNA)
RNA: B1 RNA with G26U, G27U, G28U, C29A, C30U
DNA 1: CAATCTGAATTCCGGTCTCCC
DNA 2: TGGTGGCTACGACGGGATT

Changes are numbered by the printed parent chain; changes in the protein carry UniProt numbers. Some of the results follow.

The test concerns the target T1, RBFOX1 RRM (Homo sapiens, UniProt Q9NWB1 109-208).
T1 sequence: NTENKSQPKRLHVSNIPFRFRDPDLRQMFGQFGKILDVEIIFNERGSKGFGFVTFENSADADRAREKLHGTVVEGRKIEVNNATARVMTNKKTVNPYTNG
The experiment in a line: EMSA; HiTS-Eq, 1 nM pool, 10 min; buffer printed only for the single-RNA assays: 10 mM Tris pH 7.5, 150 mM NaCl, 3.4 mM EDTA, 0.001% NP-40, 30 C. To be noted: tags: His6 N-terminal (pET28a); label: 5' 32P. In a few lines: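 Purified wild-type or mutant RbFox RRM at increasing concentrations was equilibrated with 1 nM of 5′-radiolabelled RNA carrying 7 randomized nucleotides for 10 min in 50 µL. Unbound RNA was separated by 8% native PAGE and sequenced. Relative association constants came from read-count changes of each RNA species compared with the control reaction, normalised to the cognate motif.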
On to B1, for which the binding signal is 0.0351 KA relative to UGCAUGU.
B2: the binding signal is 0.00279 KA relative to UGCAUGU.
With B3, the binding signal is 0.00507 KA relative to UGCAUGU.
The value for B4 was 0.00366 KA relative to UGCAUGU.
The value for B5 was 0.0106 KA relative to UGCAUGU; that for B6 was 0.0127 KA relative to UGCAUGU; that for B7 was 0.01 KA relative to UGCAUGU.
For B8 the value was 0.0116 KA relative to UGCAUGU; for B9, 0.0145 KA relative to UGCAUGU.
B10: the binding signal was 0.0113 KA relative to UGCAUGU.
The value for B11 was 0.00961 KA relative to UGCAUGU; that for B12 was 0.0016 KA relative to UGCAUGU.
For B13 the value was 0.00885 KA relative to UGCAUGU; for B14, 0.00937 KA relative to UGCAUGU; for B15, 0.00342 KA relative to UGCAUGU.
As for B16, the binding signal is 0.00771 KA relative to UGCAUGU.
For B17, the binding signal is 0.00877 KA relative to UGCAUGU.
The value for B18 was 0.0196 KA relative to UGCAUGU; that for B19 was 0.0237 KA relative to UGCAUGU.
Take B20: the binding signal was 0.0126 KA relative to UGCAUGU.

The values above are taken from article PMC9911399, “Two distinct binding modes provide the RNA-binding protein RbFox with extraordinary sequence specificity”.
